In PubChem BioAssay (NCI):
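Where inhibition never reached the appropriate level, the endpoint shown equals the highest concentration tested. Otherwise, values were interpolated linearly from a five-concentration, 48-hour dose response in 96-well plates. GI50 = concentration required for 50% inhibition of growth. The concentration for full growth arrest is given as TGI.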

tested on: NCI-H322M lung; assay: DTP human tumour cell line panel, 48 h

SMILES	TGI	GI50
O=C(CNc1ccccc1C(=O)O)Nn1cnc2ccc(S(=O)(=O)Nc3ccccc3C(=O)O)cc2c1=O	> 100 µM	
N#Cc1c(-c2ccc([N+](=O)[O-])cc2)c(C#N)c(=O)n(NS(=O)(=O)c2ccccc2)c1S	> 100 µM	
COc1nc(Cl)nc(N[C@H](C)c2c3ccccc3cc3ccccc23)n1	9.7 µM	
NC(N)=N/N=C\c1ccc(OCc2ccccc2)cc1	8.31 µM	2.51 µM
N#CCCC(C=O)(CCC#N)CCC#N	> 100 µM	
N#Cc1c(NC(=S)Nc2ccc(Cl)cc2)sc2c1CCN(N1CCc3c(sc(NC(=S)Nc4ccc(Cl)cc4)c3C#N)C1)C2	47.5 µM	
Clc1ccc2c(c1)N(CCCN1CCCC13CCCCC3)c1ccccc1S2	> 53.3 µM	
Nc1cc2c3c(cccc3c1)C(=O)N(CCN1CCCC1)C2=O	29.2 µM	4.45 µM
O=C1c2ccccc2-c2nc3ccncc3n21	> 100 µM	
CCOC(=O)NC(=S)N(CC(=O)c1cc(OC)c(OC)c(OC)c1)c1ccc(Cl)cc1	> 100 µM	33.6 µM
CC(C)Cc1cnc(CC(C)C)c(=O)[nH]1	> 100 µM	
Cc1cc(=O)[nH]c(NNC(C#N)c2cccc([N+](=O)[O-])c2)n1 (stereo unspecified)	> 100 µM	
C=C1CCC[C@@H](C)C(O)[C@@H]2OC(=O)C(=C)[C@@H]2C[C@@H](OC(C)=O)[C@@]2(C)CC[C@@H]1O2 (stereo partly specified)	15.3 µM	
N/N=C(/Cc1ccccc1)NNO	> 100 µM	
C[s+]1c2ccccc2c2ccccc21	> 100 µM	
C=C(C)C1CC(=O)C(C)=C(O)C1 (stereo unspecified)	> 100 µM	
COC(=O)c1c2c(cc3c1CC1(Cc4cc5c(c(C=O)c4C1)CCC5)C3)CCC2 (stereo unspecified)	> 100 µM	
c1cnc2c(c1)-n1cccc1C1(CCCCC1)NN2	> 100 µM	
Cn1c(=O)c2c(nc3[nH]c(=O)c(Br)cn32)n(C)c1=O	> 100 µM	
CC1=C(CO)C(=O)OC(C(C)C2CCC3C4CC5OC56C(O)C(N5CC5)=CC(=O)C6(C)C4CCC23C)C1 (stereo unspecified)	26.6 µM	
Cc1c(C)c2c(c(N)c1C#N)C(=O)N(N)C2=O	> 100 µM	
Clc1ccccc1C(Nc1cnccn1)Nc1cnccn1	> 100 µM	
COP(=O)(OC)OCN(C)CC/C=C(\C)CC/C=C(\C)CCC=C(C)C	30.5 µM	
O=C(O)C(Cc1ccccc1)NCc1c(O)ccc2c(-c3ccccc3)cc(=O)oc12 (stereo unspecified)	> 100 µM	
O=S(=O)(Nc1nc2ccccc2nc1N1CCCCCC1)c1ccccc1	> 100 µM	

SMILES	TGI	GI50
CCOC(=O)c1cc(-c2ccc(OC)cc2)c([N+](=O)[O-])[nH]1	> 10 µM	
Nc1c(C(=O)c2ccc(Cl)c(Cl)c2)[nH]c(NCc2ccccc2)c1C(=S)Nc1ccccc1	18.1 µM	
COc1cc2c[n+]3c4c(c2c(OC)c1OC)CCCC4CC3 (stereo unspecified)	> 100 µM	
COC1=CC(=O)O/C1=C(\OC)C1OC1c1ccccc1 (stereo unspecified)	> 100 µM	
O=C1NC(O)c2cc3ccccc3cc2O1 (stereo unspecified)	> 100 µM	
CC(C)(C)C#COC(=O)c1ccccc1	> 100 µM	
COC1(CC[C@@H](C)COC2OC(CO)C(O)C(O)C2O)OC2C[C@H]3[C@@H]4CC[C@H]5C[C@@H](OC6OC(CO)C(OC7OC(CO)C(O)C(O)C7O)C(O)C6OC6OC(C)C(O)C(O)C6O)[C@H](O)C[C@]5(C)[C@H]4CC[C@]3(C)C2[C@@H]1C (stereo partly specified)	3.58 µM	
O=c1c(-c2ccc3c(c2)OCO3)coc2c3c(ccc12)OCO3	> 100 µM	
ClC1=NN=C(c2c[nH]c3ccccc23)CC1NCc1ccccc1 (stereo unspecified)	> 100 µM	
Cc1cccc(C)c1NC(=O)C(=O)Cc1nc2ccccc2s1	> 100 µM	
COc1ccc(N2C(=O)C3c4[nH]c5c(C)cccc5c4C4CCC(C(C)C)CC4C3C2=O)cc1 (stereo unspecified)	30.1 µM	
C=C1C(=O)O[C@@H]2/C=C(/C)[C@@H](OC(C)=O)C/C=C(\C)C(O)[C@@H](OC(=O)/C(C)=C\C)C12 (stereo partly specified)	> 100 µM	
O=C(O)CSC(CC(=O)c1ccc(Cl)cc1)c1ccc(Cl)cc1 (stereo unspecified)	> 100 µM	
N#C/C(=C\c1ccc2[nH]ccc2c1)C(=O)NCCCCNC(=O)/C(C#N)=C/c1ccc2[nH]ccc2c1	> 31.6 µM	
COc1cc(C2CC(c3ccc(Nc4nc(NCCO)nc(NCCO)n4)cc3)=NN2c2cc(Cl)cc(Cl)c2)cc(OC)c1OC (stereo unspecified)	9.79 µM	3.01 µM
O=C(O)c1c(CC(Cc2ccc3c(c2)CCC3)C(=O)O)ccc2c1CCC2 (stereo unspecified)	> 100 µM	
c1ccc2c(c1)[nH]c1c2nc2ccccn21	> 100 µM	
C/C(=N/NC(=S)Nc1ccccc1)c1nc2ccc(Cl)cc2[nH]1	0.672 µM	0.05 µM
CCOC(=O)c1c(-c2ccc(OC)cc2)ccn1C	> 10 µM	
C/C(=N\Nc1nc2ccccc2s1)c1ccncn1	> 59.4 µM	
CCC1(O)CC(CCN(Cc2ccccc2)C(=O)OCc2ccccc2)C(OCc2ccccc2)C1O (stereo unspecified)	36.7 µM	
COC(=O)c1sc(=O)sc1SCc1cccc(CSc2sc(=O)sc2C(=O)OC)c1	> 100 µM	
O=c1c2cccnc2ncn1CCCN1CCCCC1	> 100 µM	
Cc1ccccc1NC(=O)O/N=C(\Cl)C(C)C	32.4 µM	
N[C@@H](CCC(=O)NC(Cc1ccccc1)C(=O)NCP(=O)(O)O)C(=O)O (stereo partly specified)	> 100 µM	

SMILES	TGI	GI50
COc1cc2c(/C=C3/C(=O)Nc4ccccc43)c(Cl)n(Cc3ccc(Cl)cc3)c2cc1C	13.7 µM	
COc1ccccc1NC(=O)C(=O)C(C(=O)c1ccccc1F)C1OC(=O)c2ccccc21 (stereo unspecified)	83.1 µM	
CC(C)CCCC(C)[C@H]1CCC(C2C[C@@H](O)[C@@H]3CC(O)[C@@H](O)C[C@]3(CO)C2=O)[C@]1(C)CCO (stereo partly specified)	72.6 µM	
[N-]=[N+]=CC(=O)CCC(N)C(=O)O (stereo unspecified)	> 209 µM	0.944 µM
CC(C)(C)C[C@H]1N[C@@H](C(=O)NC2CCC(O)CC2)[C@H](c2cccc(Cl)c2F)[C@@]12C(=O)Nc1cc(Cl)ccc12 (stereo partly specified)	24 µM	11.4 µM
NC(=O)CCC(N=c1c2ccccc2n(O)c2ccccc12)C(=O)O (stereo unspecified)	> 100 µM	
N#Cc1nc(CCc2nc(C#N)c(N)o2)oc1N	> 10 µM	
COc1ccc(-c2ccc(CC(=O)O)cc2)cc1OC	> 100 µM	
O=c1c(Cc2ccc3c(c2)OCO3)nnc2sc(-c3cc(F)c(Cl)cc3Cl)nn12	67.7 µM	20.5 µM
Nc1[nH]c(=O)nc2c1ncn2C1OC(CO)C(O)C1O (stereo unspecified)	> 100 µM	
Cc1ccc(C2=CC(=O)c3ccccc3C2=O)n1-c1ccccc1	> 100 µM	
CCCC(=O)O[C@]1(C)CC[C@@H]2[C@H]3[C@@H]1[C@@H]1C[C@@](C)(O)[C@H](OC)CC[C@](C)(OC(=O)[C@@H]2C)[C@H]3O1	49 µM	19.2 µM
Cc1c(C)c([N+](=O)[O-])c2c(c1N)C(=O)c1ccccc1C2=O	> 100 µM	
O=CCCCCCOCc1ccccc1	> 100 µM	
O=c1[nH]c(C2CCCN2)nc2c1oc1ccc(Cl)cc12 (stereo unspecified)	> 100 µM	> 100 µM
Cc1nc(NC(C)(CO)CO)nc(N/N=C/c2ccc(Cl)cc2)c1C(=O)Nc1ccc(Cl)cc1	> 100 µM	
CC1=NN(c2cccc(Cl)c2)C(=O)/C1=C\c1cn(CC(O)CN2CCCCC2)c2ccccc12 (stereo unspecified)	31.8 µM	14.9 µM
CCOc1c(Br)cc(Br)cc1C=C(C#N)C#N	> 10 µM	
CC(=O)CC1(CBr)Nc2ccc([N+](=O)[O-])cc2NC1=O (stereo unspecified)	> 100 µM	
COc1ccc(CCNC(=O)Cc2ccccc2CO)cc1OC	> 100 µM	
CC(=O)C(=Cc1cn(C)c(=O)n(C)c1=O)C(C)=O	180 µM	
COc1cc2c(cc1OC)C(=O)N(c1ccc(OCCN3CCCC3)cc1)C2	> 100 µM	
COc1cccc(-c2cc(C(=O)Nc3ccc(/C=C/c4ccc(OC5CCN(C)CC5)cc4)cc3)ccc2OC)c1	3.24 µM	1.67 µM
CSc1nc(Nc2cccc(NC(=O)CCl)c2)c(C#N)c(-c2cccc([N+](=O)[O-])c2)n1	20.5 µM	7.82 µM
Cn1c(I)c(C#C[Si](C)(C)C)c(=O)n(C(=O)c2ccccc2)c1=O	57.1 µM	25.1 µM

SMILES	TGI	GI50
OCc1ccc(N(Cc2ccc(F)cc2)Cc2ccc(F)cc2)cc1Cl	22.5 µM	10.2 µM
CN(CCCCCl)P(=O)(OCc1ccc([N+](=O)[O-])o1)OCC1OC(n2ccc(N)nc2=O)C(O)C1O (stereo unspecified)	74.7 µM	
N=C1CCCC1C(=S)SCCC(N)=O (stereo unspecified)	> 100 µM	
CN(C)C(=S)/N=c1\ss/c(=N\C(=S)N(C)C)n1-c1cccc(Cl)c1	> 100 µM	
O=C1CC23CCCCCCCCCCC2(C1)CC(=O)C3 (stereo unspecified)	> 100 µM	
COC1CC(C)(NC(=O)C(F)(F)F)C2OC(c3ccccc3)OCC2O1 (stereo unspecified)	> 100 µM	
CSC(SC)=C(C(=O)c1ccc(Cl)cc1)n1c(=O)sc2cc(Br)ccc21	> 100 µM	
C1=CC(=P(c2ccccc2)(c2ccccc2)c2ccccc2)C=C1	36.4 µM	
C=C(Br)CN=CN(C)C	> 100 µM	
O=C1C(=O)c2c(nc3ccc(C(F)(F)F)cn23)-c2ccccc21	1.15 µM	0.552 µM
COc1cc(N2C(=O)[C@H](Cl)C2c2ccc(SC)cc2)cc(OC)c1OC (stereo partly specified)	> 100 µM	2.66 µM
COc1cc2c(cc1C)NC(=O)/C2=C/c1ccnc2ccccc12	> 50 µM	33.4 µM
O=C(Nc1ccccc1)N1CCN(C(=O)Nc2ccccc2)C1=S	> 100 µM	
COc1cc(C)c2c(c1)CN1CN2Cc2cc(OC)cc(C)c21	> 100 µM	
C=C1c2nc3ccccc3n2C=C(c2ccc(C)cc2)N1c1ccc(OC)cc1	> 100 µM	
COc1cc2c(cc1OCCNC(=O)/C=C1\C[C@H]3C=Nc4cc(OCc5ccccc5)c(OC)cc4C(=O)N3C1)N=C[C@@H]1CCCN1C2=O	59.7 µM	21.2 µM
COc1ccc(-c2ccc(OC)c(OC)c2OC)cc1	> 100 µM	6.65 µM
COc1ccc(-c2nc3ccccc3s2)cc1OC	89.2 µM	
N#Cc1ccccc1NC(=O)C(=O)C(C(=O)c1ccccc1F)C1OC(=O)c2ccccc21 (stereo unspecified)	> 100 µM	
COc1cc(CCNC2=CC(=O)c3nc[nH]c3C2=O)ccc1O	76.8 µM	
COc1ccc(-c2ccc(C3CC(c4ccccc4)=NN3)o2)c([N+](=O)[O-])c1 (stereo unspecified)	> 100 µM	43 µM
C=C(NC(=O)C(=C)NC(=O)c1ccc2c(n1)-c1coc(n1)C(=C)NC(=O)C(=C)NC(=O)c1nc(oc1C)C(=C)NC(=O)C(C(C)(C)O)NC(=O)C(=C)NC(=O)c1coc(n1)/C(=C/C)NC(=O)[C@H]([C@@H](C)O)NC(=O)c1csc-2n1)C(N)=O (stereo partly specified)	> 87.5 µM	
O=c1c2cc(Br)cc(Br)c2[nH]c(=S)n1-c1ccc(N=Nc2ccc(O)c3cccnc23)cc1	> 100 µM	
COC(=O)[C@]1(c2cc3ccccc3n2S(=O)(=O)c2ccccc2)CC2CN(C(=O)OCc3ccccc3)C1C1OC(C)(C)OC21 (stereo partly specified)	> 100 µM	
COc1cc(O)ccc1C(=S)SC	> 100 µM	
